Source: the supplement of paper PMC12067093, “Discovery and optimisation of a covalent ligand for TRIM25 and its application to targeted protein ubiquitination” (Chemical Science, 2025)
Of roughly 21,000 targets only a part is listed; those with the largest changes were picked by preference.

Compound: Cc1cc(ccc1-c1ccccc1)C(=O)N1CCCN(CC1)C(=O)CCl [compound 10]
Experiment: probe-labelled cysteine peptide fold change vs DMSO (competition) (log2 fold change); higher = less target engagement (more negative = stronger competition)
Settings: 10 µM; THP-1; incubation time: 4 h
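Also: competitive profiling in live THP-1 cells: cysteine peptides tagged with an iodoacetamide desthiobiotin (IA-DTB) probe, intensity after compound treatment relative to DMSO-treated cells.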

UniProt Q9NZB2, sequence (Q9NZB2 whole entry, looked up): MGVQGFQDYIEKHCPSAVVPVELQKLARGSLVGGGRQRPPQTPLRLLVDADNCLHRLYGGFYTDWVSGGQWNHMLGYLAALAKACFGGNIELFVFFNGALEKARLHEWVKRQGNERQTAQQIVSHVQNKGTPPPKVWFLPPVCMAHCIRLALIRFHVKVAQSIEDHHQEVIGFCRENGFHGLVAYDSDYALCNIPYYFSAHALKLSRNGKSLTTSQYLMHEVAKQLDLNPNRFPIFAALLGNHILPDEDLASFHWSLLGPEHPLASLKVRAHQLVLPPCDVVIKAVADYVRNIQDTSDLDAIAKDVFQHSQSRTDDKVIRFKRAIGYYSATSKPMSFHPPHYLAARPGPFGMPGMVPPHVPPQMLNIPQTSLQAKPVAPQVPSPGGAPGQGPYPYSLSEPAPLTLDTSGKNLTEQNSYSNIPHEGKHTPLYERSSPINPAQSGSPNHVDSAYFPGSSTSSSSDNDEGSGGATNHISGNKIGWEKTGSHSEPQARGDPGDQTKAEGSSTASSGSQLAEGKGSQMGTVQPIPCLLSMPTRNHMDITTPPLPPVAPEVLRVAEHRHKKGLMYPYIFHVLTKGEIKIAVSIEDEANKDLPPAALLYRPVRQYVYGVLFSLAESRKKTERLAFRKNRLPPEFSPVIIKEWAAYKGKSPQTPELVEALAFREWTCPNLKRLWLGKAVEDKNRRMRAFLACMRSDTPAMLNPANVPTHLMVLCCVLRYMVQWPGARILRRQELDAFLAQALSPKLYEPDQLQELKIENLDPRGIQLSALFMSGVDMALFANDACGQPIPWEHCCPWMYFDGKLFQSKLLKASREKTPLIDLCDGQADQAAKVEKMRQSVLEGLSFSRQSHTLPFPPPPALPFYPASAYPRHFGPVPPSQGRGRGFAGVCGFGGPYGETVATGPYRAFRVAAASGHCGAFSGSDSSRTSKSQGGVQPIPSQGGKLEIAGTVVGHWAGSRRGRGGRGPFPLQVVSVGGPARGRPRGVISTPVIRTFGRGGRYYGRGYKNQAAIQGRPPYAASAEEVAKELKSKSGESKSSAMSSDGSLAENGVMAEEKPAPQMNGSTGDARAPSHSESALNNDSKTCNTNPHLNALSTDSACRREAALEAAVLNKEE
UniProt Q96KQ7, sequence (Q96KQ7 whole entry, looked up): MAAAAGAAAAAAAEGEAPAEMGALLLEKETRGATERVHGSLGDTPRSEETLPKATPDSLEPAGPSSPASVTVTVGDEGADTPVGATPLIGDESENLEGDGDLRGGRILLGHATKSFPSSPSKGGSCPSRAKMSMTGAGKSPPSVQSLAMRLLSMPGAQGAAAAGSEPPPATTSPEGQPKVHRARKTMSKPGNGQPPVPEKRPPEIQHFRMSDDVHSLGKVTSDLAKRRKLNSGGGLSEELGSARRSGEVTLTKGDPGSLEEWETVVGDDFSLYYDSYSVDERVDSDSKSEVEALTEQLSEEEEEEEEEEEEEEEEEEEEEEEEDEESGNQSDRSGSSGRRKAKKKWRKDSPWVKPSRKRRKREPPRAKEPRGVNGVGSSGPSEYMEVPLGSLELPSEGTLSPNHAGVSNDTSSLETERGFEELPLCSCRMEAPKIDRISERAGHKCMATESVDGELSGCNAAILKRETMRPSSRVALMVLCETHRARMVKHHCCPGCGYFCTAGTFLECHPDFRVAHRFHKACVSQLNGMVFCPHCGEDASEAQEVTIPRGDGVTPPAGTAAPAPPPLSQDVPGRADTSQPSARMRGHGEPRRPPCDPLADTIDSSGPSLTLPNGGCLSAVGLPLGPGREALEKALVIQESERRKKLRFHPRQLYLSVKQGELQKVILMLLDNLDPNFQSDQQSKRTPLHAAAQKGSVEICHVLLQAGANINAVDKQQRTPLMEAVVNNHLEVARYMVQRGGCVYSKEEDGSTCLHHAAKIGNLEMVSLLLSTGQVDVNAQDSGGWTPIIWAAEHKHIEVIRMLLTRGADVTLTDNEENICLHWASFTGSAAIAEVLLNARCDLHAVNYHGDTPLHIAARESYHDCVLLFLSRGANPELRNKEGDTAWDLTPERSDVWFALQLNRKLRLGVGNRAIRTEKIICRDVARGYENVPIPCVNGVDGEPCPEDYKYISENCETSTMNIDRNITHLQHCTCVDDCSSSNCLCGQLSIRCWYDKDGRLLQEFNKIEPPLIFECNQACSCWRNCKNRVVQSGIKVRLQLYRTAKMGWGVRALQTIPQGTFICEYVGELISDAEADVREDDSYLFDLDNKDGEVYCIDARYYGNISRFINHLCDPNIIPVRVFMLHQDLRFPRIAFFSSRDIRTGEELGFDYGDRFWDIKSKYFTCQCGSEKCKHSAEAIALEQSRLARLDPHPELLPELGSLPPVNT
UniProt P55884, sequence (P55884 whole entry, looked up): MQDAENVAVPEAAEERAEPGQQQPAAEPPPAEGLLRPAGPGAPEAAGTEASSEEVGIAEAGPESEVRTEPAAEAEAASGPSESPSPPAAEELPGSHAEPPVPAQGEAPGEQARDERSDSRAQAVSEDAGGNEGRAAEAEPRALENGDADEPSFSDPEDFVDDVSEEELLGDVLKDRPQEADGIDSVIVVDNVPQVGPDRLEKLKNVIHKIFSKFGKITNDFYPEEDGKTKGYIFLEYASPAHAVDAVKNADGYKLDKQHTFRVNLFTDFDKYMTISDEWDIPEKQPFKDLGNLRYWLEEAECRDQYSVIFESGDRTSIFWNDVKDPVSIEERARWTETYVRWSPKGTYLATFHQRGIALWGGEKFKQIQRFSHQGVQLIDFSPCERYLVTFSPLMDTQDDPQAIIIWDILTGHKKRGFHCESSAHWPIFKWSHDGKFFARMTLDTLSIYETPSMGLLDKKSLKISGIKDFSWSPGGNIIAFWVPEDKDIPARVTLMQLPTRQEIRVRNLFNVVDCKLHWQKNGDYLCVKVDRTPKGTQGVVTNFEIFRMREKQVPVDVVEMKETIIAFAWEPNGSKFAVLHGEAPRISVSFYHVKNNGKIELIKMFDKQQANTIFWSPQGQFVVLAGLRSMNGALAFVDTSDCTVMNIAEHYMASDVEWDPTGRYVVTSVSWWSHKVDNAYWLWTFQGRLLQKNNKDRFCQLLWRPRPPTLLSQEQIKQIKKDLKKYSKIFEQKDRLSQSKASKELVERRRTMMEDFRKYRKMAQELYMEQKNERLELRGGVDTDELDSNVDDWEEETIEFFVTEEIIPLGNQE
UniProt Q96F86, sequence (Q96F86 whole entry, looked up): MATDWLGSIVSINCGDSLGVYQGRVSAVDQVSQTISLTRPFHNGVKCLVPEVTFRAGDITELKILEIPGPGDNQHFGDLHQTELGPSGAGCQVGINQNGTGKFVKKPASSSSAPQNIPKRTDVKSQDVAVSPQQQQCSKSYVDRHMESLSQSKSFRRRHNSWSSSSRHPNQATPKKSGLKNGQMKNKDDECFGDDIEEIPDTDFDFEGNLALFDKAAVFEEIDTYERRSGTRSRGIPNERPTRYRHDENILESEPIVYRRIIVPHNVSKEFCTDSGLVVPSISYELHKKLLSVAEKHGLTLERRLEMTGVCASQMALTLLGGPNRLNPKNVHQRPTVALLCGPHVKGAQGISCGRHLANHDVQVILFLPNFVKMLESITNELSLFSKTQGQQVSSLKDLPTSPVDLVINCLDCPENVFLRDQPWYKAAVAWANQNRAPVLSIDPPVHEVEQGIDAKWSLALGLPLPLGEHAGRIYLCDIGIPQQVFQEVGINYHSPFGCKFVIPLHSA
UniProt Q9BYI3, sequence (Q9BYI3 whole entry, looked up): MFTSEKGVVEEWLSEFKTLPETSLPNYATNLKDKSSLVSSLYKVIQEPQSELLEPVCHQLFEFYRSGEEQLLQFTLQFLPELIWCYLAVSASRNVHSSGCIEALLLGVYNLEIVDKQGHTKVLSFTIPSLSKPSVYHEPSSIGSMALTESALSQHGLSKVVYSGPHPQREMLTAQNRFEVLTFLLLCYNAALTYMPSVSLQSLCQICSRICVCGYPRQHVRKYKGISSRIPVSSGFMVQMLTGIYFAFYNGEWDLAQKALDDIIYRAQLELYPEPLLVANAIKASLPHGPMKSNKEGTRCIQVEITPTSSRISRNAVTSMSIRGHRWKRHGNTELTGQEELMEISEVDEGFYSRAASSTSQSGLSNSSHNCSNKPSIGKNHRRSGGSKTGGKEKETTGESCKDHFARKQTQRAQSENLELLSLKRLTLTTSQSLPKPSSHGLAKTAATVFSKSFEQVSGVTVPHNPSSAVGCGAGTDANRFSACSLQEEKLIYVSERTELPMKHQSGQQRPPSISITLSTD
UniProt Q16610, sequence (Q16610 whole entry, looked up): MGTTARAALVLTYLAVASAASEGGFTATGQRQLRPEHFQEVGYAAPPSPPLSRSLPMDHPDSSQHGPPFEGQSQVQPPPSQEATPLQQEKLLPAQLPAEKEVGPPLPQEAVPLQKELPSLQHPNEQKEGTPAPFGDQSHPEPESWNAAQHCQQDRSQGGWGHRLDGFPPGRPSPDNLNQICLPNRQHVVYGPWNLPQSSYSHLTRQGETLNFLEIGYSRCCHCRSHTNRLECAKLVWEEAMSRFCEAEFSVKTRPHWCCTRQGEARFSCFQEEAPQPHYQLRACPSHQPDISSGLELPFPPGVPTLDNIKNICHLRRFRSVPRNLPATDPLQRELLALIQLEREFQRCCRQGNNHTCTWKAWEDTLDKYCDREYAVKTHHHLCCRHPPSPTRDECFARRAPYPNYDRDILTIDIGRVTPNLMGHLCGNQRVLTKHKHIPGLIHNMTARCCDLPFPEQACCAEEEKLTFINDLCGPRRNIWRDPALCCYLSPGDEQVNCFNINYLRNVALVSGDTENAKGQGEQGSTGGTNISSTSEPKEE
UniProt Q15370, sequence (Q15370 whole entry, looked up): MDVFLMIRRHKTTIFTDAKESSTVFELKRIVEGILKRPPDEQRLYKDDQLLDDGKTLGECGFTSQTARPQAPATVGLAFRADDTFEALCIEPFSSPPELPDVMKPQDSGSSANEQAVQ
UniProt P51452, sequence (P51452 whole entry, looked up): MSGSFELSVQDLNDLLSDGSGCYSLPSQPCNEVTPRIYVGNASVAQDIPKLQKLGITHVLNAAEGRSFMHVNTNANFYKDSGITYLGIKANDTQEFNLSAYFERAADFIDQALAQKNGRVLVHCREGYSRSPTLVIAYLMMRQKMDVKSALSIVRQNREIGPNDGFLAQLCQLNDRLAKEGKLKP

Target	probe-labelled cysteine peptide fold change
ERI1_Q8IV48_243_FLNIQCQLSR (UniProt Q8IV48)	0.0182
EDC3_Q96F86_137_SQDVAVSPQQQQCSK (UniProt Q96F86)	0.148
ECM1_Q16610_259_TRPHWCCTR (UniProt Q16610)	-0.169
DUSP3_P51452_124_VLVHCR (UniProt P51452)	-0.0219
FARSB_Q9NSD9_418_HDMAAAGFTEALTFALCSQEDIADK (UniProt Q9NSD9)	0.0214
DYNC1LI2_O43237_104_CNVWILDGDLYHK<|>DYNC1LI1_Q9Y6G9_117_CNVWILDGDLYHK (UniProt Q9Y6G9+O43237)	0.0463
FARS2_O95363_413_TSHCYR (UniProt O95363)	0.0806
EIPR1_Q53HC9_247_QYYLASCGDDCK (UniProt Q53HC9)	-0.161
EEF1A1_P68104_234_DGNASGTTLLEALDCILPPTRPTDK (UniProt P68104)	-0.00679
DSCR3_O14972_221_VETCGCAEGYAR (UniProt O14972)	-0.123
FAM192A_Q9GZU8_44_KPEDPEECPEEVYDPR (UniProt Q9GZU8)	0.0522
EIF1_P41567_94_NICQFLVEIGLAKDDQLK (UniProt P41567)	0.185
EHMT1_Q9H9B1_978_EGETPLQCASLNSQVWSALQMSK (UniProt Q9H9B1)	0.0982
EHMT2_Q96KQ7_126_GGSCPSR (UniProt Q96KQ7)	0.842
ELAC2_Q9BQ52_374_FGPDTQHLVLNENCASVHNLR (UniProt Q9BQ52)	0.0447
FECH_P22830_395_ALADLVHSHIQSNELCSK (UniProt P22830)	-0.103
EED_O75530_330_SCENAIVCWKPGK (UniProt O75530)	0.154
DPF2_Q92785_306_SGHPSCLQFTPVMMAAVK (UniProt Q92785)	0.169

Target	probe-labelled cysteine peptide fold change
ELOB_Q15370_60_TLGECGFTSQTAR (UniProt Q15370)	-0.131
EGLN1_Q9GZT9_266_EPGCETIGLLMSSMDDLIR (UniProt Q9GZT9)	0.298
FEM1A_Q9BSK4_124_AACFDGHLEVVR (UniProt Q9BSK4)	0.0849
FAM120A_Q9NZB2_1103_TCNTNPHLNALSTDSACR (UniProt Q9NZB2)	-0.0112
EHHADH_Q08426_623_CLYSLINEAFR (UniProt Q08426)	0.466
EFTUD2_Q15029_468+476_IEHTYTGGVDSDLGEAMSDCDPDGPLMCHTTK (UniProt Q15029)	-0.351
ENG_P17813_516_GNCVSLLSPSPEGDPR (UniProt P17813)	-0.024
EXOSC6_Q5RKV6_117_RAPPGGCEER (UniProt Q5RKV6)	-0.293
EDEM3_Q9BZQ6_82_LGNQVLEMFDHAYGNYMEHAYPADELMPLTCR (UniProt Q9BZQ6)	0.0949
EML2_O95834_203_CSNEAVLVATFHPTDPTVLITCGK (UniProt O95834)	0.0448
DOCK11_Q5JSL3_1641_NGDFSEAAMCYVHVAALVAEFLHR (UniProt Q5JSL3)	-0.0337
FABP5_Q01469_43+47_KMGAMAKPDCIITCDGK (UniProt Q01469)	-0.14
FASN_P49327_2468_TGGAYGEDLGADYNLSQVCDGK (UniProt P49327)	0.13
FASN_P49327_1459_AINCATSGVVGLVNCLR (UniProt P49327)	-0.0766
ERO1A_Q96HE7_85+94_RPCPFWNDISQCGR (UniProt Q96HE7)	-0.0192
FAM126A_Q9BYI3_371_AASSTSQSGLSNSSHNCSNKPSIGK (UniProt Q9BYI3)	-0.311
EIF3B_P55884_527_NGDYLCVK (UniProt P55884)	0.0838

Same assay, conditions: 50 µM; THP-1; incubation time: 4 h

Target	probe-labelled cysteine peptide fold change
ERI1_Q8IV48_243_FLNIQCQLSR (UniProt Q8IV48)	-0.0572
EDC3_Q96F86_137_SQDVAVSPQQQQCSK (UniProt Q96F86)	-0.304
ECM1_Q16610_259_TRPHWCCTR (UniProt Q16610)	-0.393
DUSP3_P51452_124_VLVHCR (UniProt P51452)	-0.0123
FARSB_Q9NSD9_418_HDMAAAGFTEALTFALCSQEDIADK (UniProt Q9NSD9)	0.0396
DYNC1LI2_O43237_104_CNVWILDGDLYHK<|>DYNC1LI1_Q9Y6G9_117_CNVWILDGDLYHK (UniProt Q9Y6G9+O43237)	0.0772
FARS2_O95363_413_TSHCYR (UniProt O95363)	0.235
EIPR1_Q53HC9_247_QYYLASCGDDCK (UniProt Q53HC9)	-0.568
EEF1A1_P68104_234_DGNASGTTLLEALDCILPPTRPTDK (UniProt P68104)	0.166
DSCR3_O14972_221_VETCGCAEGYAR (UniProt O14972)	-1.72
FAM192A_Q9GZU8_44_KPEDPEECPEEVYDPR (UniProt Q9GZU8)	-0.0432
EIF1_P41567_94_NICQFLVEIGLAKDDQLK (UniProt P41567)	-1.67
EHMT1_Q9H9B1_978_EGETPLQCASLNSQVWSALQMSK (UniProt Q9H9B1)	-0.0574
EHMT2_Q96KQ7_126_GGSCPSR (UniProt Q96KQ7)	1.11
ELAC2_Q9BQ52_374_FGPDTQHLVLNENCASVHNLR (UniProt Q9BQ52)	-0.106
FECH_P22830_395_ALADLVHSHIQSNELCSK (UniProt P22830)	-0.0993
EED_O75530_330_SCENAIVCWKPGK (UniProt O75530)	-0.0247
DPF2_Q92785_306_SGHPSCLQFTPVMMAAVK (UniProt Q92785)	-0.346

Target	probe-labelled cysteine peptide fold change
ELOB_Q15370_60_TLGECGFTSQTAR (UniProt Q15370)	0.13
EGLN1_Q9GZT9_266_EPGCETIGLLMSSMDDLIR (UniProt Q9GZT9)	0.274
FEM1A_Q9BSK4_124_AACFDGHLEVVR (UniProt Q9BSK4)	-0.115
FAM120A_Q9NZB2_1103_TCNTNPHLNALSTDSACR (UniProt Q9NZB2)	-0.0512
EHHADH_Q08426_623_CLYSLINEAFR (UniProt Q08426)	0.251
EFTUD2_Q15029_468+476_IEHTYTGGVDSDLGEAMSDCDPDGPLMCHTTK (UniProt Q15029)	-0.0991
ENG_P17813_516_GNCVSLLSPSPEGDPR (UniProt P17813)	0.0976
EXOSC6_Q5RKV6_117_RAPPGGCEER (UniProt Q5RKV6)	-1.51
EDEM3_Q9BZQ6_82_LGNQVLEMFDHAYGNYMEHAYPADELMPLTCR (UniProt Q9BZQ6)	0.28
EML2_O95834_203_CSNEAVLVATFHPTDPTVLITCGK (UniProt O95834)	0.0349
DOCK11_Q5JSL3_1641_NGDFSEAAMCYVHVAALVAEFLHR (UniProt Q5JSL3)	-0.0391
FABP5_Q01469_43+47_KMGAMAKPDCIITCDGK (UniProt Q01469)	-1.09
FASN_P49327_2468_TGGAYGEDLGADYNLSQVCDGK (UniProt P49327)	-0.536
FASN_P49327_1459_AINCATSGVVGLVNCLR (UniProt P49327)	-0.241
ERO1A_Q96HE7_85+94_RPCPFWNDISQCGR (UniProt Q96HE7)	0.276
FAM126A_Q9BYI3_371_AASSTSQSGLSNSSHNCSNKPSIGK (UniProt Q9BYI3)	-1.19
EIF3B_P55884_527_NGDYLCVK (UniProt P55884)	0.0137
